B1: LINE1-mini (parent)
chain: GGCAGAGCUCAACACAGCGUGGCAAAGUGGCUGUGGCUAGACUGCC

The record followed here is the RNAGym collection of RNA variant scans (doi:10.7554/elife.90254).

The source gives no read counts; variants with many changes may rest on few reads.

Variants of B1 are the subject of the series. Kind of series: self-cleavage, relative activity (ratio to wild type); higher = more cleavage; in vitro, sequencing; the parent is a self-cleaving ribozyme.
In the case of C3U U9A G35A C45U, the self-cleavage amounted to 0.13. On to C3U C18U A25G G27C, for which the self-cleavage worked out at 0.04. As for C3U G29C U32A, the self-cleavage was determined as 0.32. In the case of C3U G19C A24C G36U it was 0.03; in that of A4C A12G G27U, 0.06; in that of C3U U20G C46U, 0.28. For A4C A14G U20C C31G C46G, the self-cleavage amounted to 0.03. The result for A4C A6G C18G U43C reads 0.02. In the case of A4C A16G C31A it was 0.1; in that of C3U C8A C18G G19C A26G C46U, 0.35; in that of C3U A14U C15G U20G A25G U32C, 0.02. Regarding C3U C31A G36U, the self-cleavage is 0.04.

For the variant C3U U28G C42G G44C, the self-cleavage turned out to be 0.01. In the case of A4C A11C C23U A25U A41U it was 0.01. Take A4C A12U G33U: the self-cleavage was found to be 0.12.

As to A4C A6U G33U, the self-cleavage was 0.01. In the case of A4C C8U C18U G22C G27C U34G C37U C45A it was 0.03; in that of A4C A12G U34G, 0. With C3U C8G C13U C31G, the self-cleavage turned out to be 0.02. The result for C3U G19A G22U reads 0.21; that for C3U G30C C46A, 0.11. In the case of C3U C8G C15A C18U it was 0.03. The result for A4C A12U G30U G44A reads 0.04; that for C3U A12U A25U A26U, 0.03; that for C3U A4G A14C G19U G22U A26C, 0.02. With C3U G17C A39C, the self-cleavage came to 0.06. In the case of C3U G7A C13U C15A it was 0.08.

As for C3U G7C C10U, the self-cleavage is 0.11. The result for C3U C15A U20G reads 0.04; that for C3U C15U G22U A24U, 1.32; that for C3U A16U U38G, 0.09. In the case of A4C A14C G21U A25U U32G it was 0.2. With A4C C8G C46G, the self-cleavage was 0.03. The result for C3U C15G G29U reads 0.03; that for C3U A4C G17U G21U A39G, 0.02; that for A4C C8A C18G, 0.2. Turning to C3U A4G G7C C31G C46G, the self-cleavage was found to be 0.04. The result for C3U A16C G33U reads 0.11. The result for A4C A6G G40C reads 0.04; that for C3U G17A C42U, 0.04. Consider C3U G7C G30A C31A C37A, for which the self-cleavage amounted to 0.11. In the case of A4C A6U A39C it was 0.1; in that of C3U C15G U20A, 0.04; in that of C3U C18A G19C G22A, 0.33. In the case of C3U G30U G40A C45U it was 0.02.

As to A4C A11U A14U, the self-cleavage came to 0.01. The result for C3U G19A C45U reads 0.65. In the case of C3U G22A G27A G35A G40A U43C it was 0.05; in that of C3U G5A C37A, 0.12; in that of C3U G7U C23U G29U C45U, 0.09. As for C3U G7A C15A G17A A24U, the self-cleavage is 0.03. The result for C3U G22A A25G U38G G40C reads 0.03; that for C3U G7U C23U, 0.06; that for C3U A16G U32C G35A, 0.06. Consider A4C C8A G22C G36C, for which the self-cleavage was determined as 0.84. The result for C3U A12G G22U reads 0.09; that for C3U G7U A14C G17U U28A G40U C42G, 0.05; that for C3U G7U G19A U20A A41G, 0.05.

Take C3U G19A G22A G27U C31A A39U: the self-cleavage turned out to be 0.78.

For A4C C10G C15G C18U G19C U38G, the self-cleavage is 0.01.

With A4C C10U G27A C42G, the self-cleavage is 0.07. The result for A4C A11C C15U G35A reads 0.02. As to C3U C15A G22U, the self-cleavage stood at 0.03.

With C3U A12C C42U, the self-cleavage was found to be 0.05. The result for C3U A14C U20A G30U C46G reads 0.06; that for C3U A4U G21C, 0.07.

As for C3U U34A U38G, the self-cleavage turned out to be 0.01. The result for C3U G5C A11U A39U G40C reads 0.11; that for C3U A4C G17U A39C, 0.05; that for C3U A14U A24G, 0.07. Turning to C3U C23G G27C, the self-cleavage was 0.05. The result for A4C C10A G36U G40U reads 0.02. With C3U C42A C45A, the self-cleavage was found to be 0.03.

As for A4C A14G C45A C46G, the self-cleavage was found to be 0.05.

With C3U C37U C45G, the self-cleavage is 0.13. The result for C3U A16U C23A C37A C45G reads 0.21; that for C3U A11G A26U G27C C31U C45U, 0. In the case of C3U A6G A12U U20A C23U A39G C46A it was 0.1. As to C3U G7A G29U U32G, the self-cleavage came out at 0.1. In the case of A4C C8A G22U C23G G27A C42G it was 0.55; in that of A4C A12C C15U, 0.11.

As for C3U G19U A25U G35U, the self-cleavage came to 0.08. As for C3U C8A C15A G21C G22A C23A C37U, the self-cleavage turned out to be 0.05.

For C3U C15G C18G G21A, the self-cleavage amounted to 0.02.

Take C3U G22U A25G G40C U43A: the self-cleavage was determined as 0.05.

For the variant C3U A6C C8G G27U, the self-cleavage stood at 0.05. Turning to C3U G21C A24G, the self-cleavage is 0.18. A4C A26C A41C C42U: the self-cleavage stood at 0.21. The result for A4C A14U G33C reads 0.02; that for A4C A12U G44U, 0.06. With C3U U20A C31G U32A U34A, the self-cleavage worked out at 0.02. As for C3U C10G A26C, the self-cleavage was determined as 0.02.

On to C3U G33A G40A G44A, for which the self-cleavage came out at 0.05. In the case of C3U G5C A24C G27U C31A C45A it was 0.08; in that of C3U G5C C13A C23A C46U, 0.06. In the case of A4C C13A G21U C31A G36U G40A it was 0.23; in that of C3U A6G A12U A24U G29U C42G C46U, 0.03. In the case of C3U A4G A12U A16G G22U G44C it was 0.09; in that of A4C C13A G21C, 0.05. As for C3U G36C C37U, the self-cleavage amounted to 0.01. Consider C3U U9G U28C A41G, for which the self-cleavage worked out at 0.06. In the case of C3U U28C C31A U38A it was 0.26; in that of C3U C8A C46A, 0.41.

In the case of C3U C23U U28G, the self-cleavage amounted to 0.41. For the variant C3U U9A U28G C42U, the self-cleavage came out at 0.09. The result for C3U U20A G22A A25G C46A reads 0.14; that for C3U G29U A39G, 0.1. In the case of C3U A16G U43C C46A it was 0.01; in that of C3U C13A G30U, 0.13; in that of C3U A4C G7U G19C U38G C42U, 0.02. The result for A4C C8G C18G U32A G35A reads 0.02.

Consider A4C C8A C15A G22C G35U, for which the self-cleavage came to 0.37. In the case of C3U G17C U32C U38A it was 0.15; in that of C3U A4C G33U, 0.04; in that of C3U A24G A25U, 0.64. Consider C3U C18U G33A, for which the self-cleavage came to 0.06. Turning to A4C C8G U20C U28C, the self-cleavage amounted to 0.04.

As for C3U G5A C13A A14C U38A G44A, the self-cleavage turned out to be 0.14. The result for C3U G21C G36A U38C reads 0.07; that for C3U C23G G27U U28G C46U, 0.11; that for C3U G5A U20A G29U C37A, 0.01. The result for A4C C8A A24C U34A reads 0.19; that for C3U G22U A24U C37G A41U, 0.06. In the case of A4C A6G A14G it was 0.01; in that of C3U G19U A26C G40A, 0.08; in that of C3U C8U G19U C23U A25C C37U, 0.07. Turning to C3U G7U U28G G33C A41U, the self-cleavage was 0.07. The result for C3U A6G G36U reads 0.35. The result for C3U A12C C15A reads 0.03; that for C3U C15U A16U G30A U43G, 0. The result for C3U G29U U32C G40U U43A reads 0.06; that for C3U A6G C13G C31A C46A, 0.05.

As to C3U C8A A24C U32C, the self-cleavage came out at 0.3.

With C3U A26C A39U, the self-cleavage is 0.34. In the case of C3U A11C G33C it was 0.02; in that of A4C C10A G33C C46G, 0.01; in that of A4C C13A C23A G33C, 0.04. Regarding C3U G22U C23G A26C, the self-cleavage was found to be 0.73. In the case of C3U C10A A24C A26U U34A it was 0.03; in that of C3U G19A G35U U43G, 0.85. The result for C3U G17A A41U G44C reads 0.07; that for C3U C23A A24C G27U, 0.31. Take C3U A14C G30U U32G U38A: the self-cleavage amounted to 0.02. Regarding C3U G21C G36U A39U C42U, the self-cleavage is 0.03. In the case of C3U A6G C10U A14U G44U C45G it was 0.01. In the case of C3U G17U U28C G35C it was 0.01. The result for C3U C37G C42A reads 0.45; that for C3U C13G A16U G27C U34A, 0.08; that for C3U C10G U43G, 0.06. As for C3U G22C G33C, the self-cleavage came out at 0.01. Take C3U A6G G21C: the self-cleavage was determined as 0.05. The result for C3U C10G C45U reads 0.04. The result for A4C A11G G22U A24U reads 0.02. The result for A4C C8U U20C U28C G35U reads 0.12; that for A4C C8G G36A G40U, 0.2. Consider C3U A4C G30U, for which the self-cleavage was 0.13. For the variant C3U A12U G22U C31A G33A, the self-cleavage worked out at 1.21. As to C3U G21U C23U A41C, the self-cleavage turned out to be 0.21.

Take C3U C10A C37A: the self-cleavage was found to be 0.01. The result for C3U C15A G19U G21A A24U G40A reads 0.05.

Regarding C3U G19C C23G G35A, the self-cleavage was 0.04.

On to A4C A16G U20A, for which the self-cleavage was 0.03. In the case of C3U A4G A41G it was 0.01; in that of C3U A6U G40U, 0.09; in that of C3U C15A U28C C31A U38G G40C C45U, 0.04.

As for C3U U9G C18U G33U, the self-cleavage was 0.05.

In the case of C3U C8U A12C G35A U43A, the self-cleavage worked out at 0.01.
